Data as given in PubChem BioAssay AID485297 (National Center for Advancing Translational Sciences (NCATS), 2010).
Out of some 320,000 compounds screened, about 9,100 (2.8%) were called active. The shares of active, inactive and inconclusive entries below differ from those in the screen. Calls follow the shape of the dose curve; as a rule, active = well fitted activation curve with a large enough effect; inconclusive = small, poorly fitted or top-dose-only effect; inactive = no such curve, though single readings can be large or run the other way. Potencies of inconclusive entries are left out as doubtful fits.

Test: qHTS Assay for Rab9 Promoter Activators; also: nearly all actives have a fitted effect of over 60% in size
Conditions: Huh7 Rab9 promoter-luciferase reporter, luminescence, 24 h; series mostly up to 9.22 µM
Procedure, shortened: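 Rab9 promoter-driven luciferase in stably transfected Huh7 cells; 1500 cells/well rested 2 h, exposed to compound in DMSO for 24 h at 37 °C, 5% CO2. Luminescence read 10 min after adding luciferase reagent at ambient temperature.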
Potency is read from the fitted curve at half-maximal effect; tags tell the direction and shape of the fitted curve.

Question: For `O=S(=O)(Oc1ccc(Cl)cc1)c1cccc2cccnc12`, which Potency is on record?
Answer: inactive

Question: For `CS(=O)(=O)c1ccc(C(=O)Nc2nc(-c3ccco3)c(-c3ccco3)s2)cc1`, which Potency is on record?
Answer: inactive

Question: For `CCOC(=O)c1oc2cc(O)cc(C)c2c(=O)c1-c1cscn1`, which Potency is on record?
Answer: inconclusive [activator, single point]

Question: With `Cc1cc([N+](=O)[O-])ccc1NC(=O)/C=C/c1cccs1` as the molecule, how does the Potency read?
Answer: inconclusive [activator, partial curve]

Question: With `N#Cc1c(NC(=S)NC(=O)C2CCCC2)sc2c1CCCCC2` as the molecule, how does the Potency read?
Answer: inconclusive [activator, single point]

Question: With `COc1ccccc1NC(=S)N/N=C/c1ccc(O)cc1` as the molecule, how does the Potency read?
Answer: inconclusive [activator, single point]

Question: For `CCn1c2ccccc2c2cc(NC(=O)c3cccc(OC)c3)ccc21`, which Potency is on record?
Answer: inconclusive [activator, single point]

Question: For `COc1ccc(C(=O)/C=C/Nc2ccc([N+](=O)[O-])cc2)cc1`, which Potency is on record?
Answer: inconclusive [activator, single point]

Question: Which Potency does the source give for `Cc1ccc(S(=O)(=O)N[C@@H](C)C(=O)OCC(=O)N2c3ccccc3NC(=O)C2(C)C)cc1` here?
Answer: inactive

Question: For `COc1ccc(C(=O)CSc2cc(C)[nH]c(=O)n2)cc1`, which Potency is on record?
Answer: inconclusive [activator, full curve]

Question: With `COc1cccc(NC(=S)N2CCN(C(c3ccccc3)c3ccccc3)CC2)c1` as the molecule, how does the Potency read?
Answer: inactive

Question: Which Potency does the source give for `COc1ccc2cc(-c3cc(C(=O)O)c4ccccc4n3)ccc2c1` here?
Answer: inconclusive [activator, full curve]

Question: Which Potency does the source give for `CC(C)COP(=O)(c1ccc(N(C)C)cc1)C(O)c1cccnc1` (stereo unspecified) here?
Answer: inactive

Question: Which Potency does the source give for `N/C(=N\OS(=O)(=O)c1ccccc1)c1ccccn1` here?
Answer: inactive

Question: For `CC(C)/C=N/Nc1nc(-c2ccc(Br)cc2)cs1`, which Potency is on record?
Answer: inconclusive [activator, single point]

Question: With `C/C=C/c1ccc(OCCn2nnc3ccccc32)c(OC)c1` as the molecule, how does the Potency read?
Answer: inconclusive [activator, single point]

Question: For `CCOc1ccc(OCCSc2nc(C)cc(=O)[nH]2)cc1`, which Potency is on record?
Answer: inconclusive [activator, partial curve]

Question: For `O=C(O)c1cc(N/N=C/C(Cl)=C/c2ccccc2)ccc1Cl`, which Potency is on record?
Answer: inconclusive [activator, full curve, poor fit]

Question: Which Potency does the source give for `COc1cccc(/C=C2\SC(=S)N(NC(=O)c3ccncc3)C2=O)c1` here?
Answer: inactive

Question: For `O=C(N/N=C/C=C/c1ccccc1)c1cccs1`, which Potency is on record?
Answer: active: 1.78 µM

Question: With `Brc1ccc(C2=Nc3ccccc3C(c3ccncc3)=NN2)cc1` as the molecule, how does the Potency read?
Answer: inactive

Question: Which Potency does the source give for `COc1ccc(C(C)=O)cc1CC(=O)Nc1cccc(S(=O)(=O)N2CCOCC2)c1` here?
Answer: inactive

Question: Which Potency does the source give for `CCSc1nnc(Nc2ccc(C)cc2)s1` here?
Answer: active: 2.82 µM

Question: With `Cc1ccc2[nH]c3c(c2c1)CCc1cn[nH]c1-3` as the molecule, how does the Potency read?
Answer: inconclusive [activator, single point]

Question: With `COc1cccc2cc(C(=O)Nc3cccc(C)n3)c(=O)oc12` as the molecule, how does the Potency read?
Answer: inconclusive [activator, single point]

Question: For `CCC(=O)Nc1cc2nn(-c3ccc(OC)cc3)nc2cc1C`, which Potency is on record?
Answer: inconclusive [activator, full curve, poor fit]

Question: With `O=C(CSc1nnc(-c2ccc(C(F)(F)F)cn2)o1)Nc1ccccc1Cl` as the molecule, how does the Potency read?
Answer: inconclusive [activator, single point]

Question: Which Potency does the source give for `CCCCNC(=S)N/N=C/c1sccc1C` here?
Answer: inactive

Question: For `O=C(c1ccccc1)N(Nc1ccccc1)c1ccccc1`, which Potency is on record?
Answer: inconclusive [activator, single point]

Question: For `Cc1cc(C)c2c(N)c(C(=O)N/N=C/c3cccnc3)sc2n1`, which Potency is on record?
Answer: inconclusive [activator, partial curve, poor fit]

Question: With `O=C(N/C(=C/c1ccc(Br)cc1)C(=O)N1CCCC1)c1cccs1` as the molecule, how does the Potency read?
Answer: inconclusive [activator, single point]

Question: Which Potency does the source give for `CC(C)C(=O)Nc1cccc(-c2cnc3ccccc3n2)c1` here?
Answer: inconclusive [activator, single point]

Question: Which Potency does the source give for `O=C(Nc1cccc2cccnc12)c1cccc([N+](=O)[O-])c1` here?
Answer: inconclusive [activator, single point]

Question: Which Potency does the source give for `Cc1ccc(NC(=O)C2C3/C=C\CCCCC32)cc1` (stereo unspecified) here?
Answer: active: 3.55 µM

Question: With `Cc1ccc(-n2c(C(C)C)nc3oc4ccccc4c(=O)c3c2=O)cc1` as the molecule, how does the Potency read?
Answer: inconclusive [activator, partial curve]

Question: Which Potency does the source give for `Cc1ccc(/C=N/NC(=O)Cc2cccn2C)cc1` here?
Answer: inconclusive [activator, single point]

Question: With `CCNC(=S)NN=C1CCC(C(C)(C)C)CC1` (stereo unspecified) as the molecule, how does the Potency read?
Answer: inconclusive [activator, single point]

Question: Which Potency does the source give for `CC(C)N(C(=O)COC(=O)c1ccc(Cl)nc1)C(C)C` here?
Answer: inactive

Question: Which Potency does the source give for `CC(=O)c1cc(C#N)c(SCc2ccccn2)nc1C` here?
Answer: inconclusive [activator, single point]

Question: With `CC(=Nc1cccc(C)c1)c1sc2ccccc2c1O` as the molecule, how does the Potency read?
Answer: inconclusive [activator, single point]

Question: With `Cc1ccc(C)c(S(=O)(=O)Nc2ccc(C(=O)N3CCC3)cc2)c1` as the molecule, how does the Potency read?
Answer: inactive

Question: With `Cc1ccsc1CCNC(=O)C1CCC(=O)N(CCc2cccc(F)c2)C1` (stereo unspecified) as the molecule, how does the Potency read?
Answer: active: 2.51 µM

Question: With `COC(=O)N/N=C\c1c(C)nn(-c2ccccc2)c1Cl` as the molecule, how does the Potency read?
Answer: inconclusive [activator, partial curve]

Question: Which Potency does the source give for `CC(=O)c1cccc(NC(=S)NC(=O)c2cccc(Cl)c2)c1` here?
Answer: active: 3.55 µM

Question: For `COc1cccc(-c2cc(C(=O)N3C(C)CCCC3C)no2)c1` (stereo unspecified), which Potency is on record?
Answer: active: 3.16 µM

Question: Which Potency does the source give for `Cc1ccccc1N1C(=O)c2ccccc2NC1c1ccncc1` (stereo unspecified) here?
Answer: inactive

Question: For `Nc1c(-c2cccc(Cl)c2)cnc2c(-c3ccccc3)cnn12`, which Potency is on record?
Answer: inconclusive [activator, partial curve]

Question: With `Cc1cccc(NC(=O)c2cc(-c3cc(Cl)ccc3O)n[nH]2)c1` as the molecule, how does the Potency read?
Answer: inconclusive [activator, partial curve]

Question: With `S=C(N/N=C/c1cccs1)NC1CC2CCC1C2` (stereo unspecified) as the molecule, how does the Potency read?
Answer: inconclusive [activator, partial curve]

Question: For `O=C(CSc1nc2ccccc2n1S(=O)(=O)c1ccccc1)N1CCCCC1`, which Potency is on record?
Answer: inconclusive [activator, single point]

Question: Which Potency does the source give for `O=C(c1cc2ccccc2oc1=O)N1CCOCC1` here?
Answer: inconclusive [activator, single point]

Question: Which Potency does the source give for `Cn1nc(C(F)(F)F)cc1-c1ccc(/C=C(\C#N)C(=O)c2ccccc2)s1` here?
Answer: inconclusive [activator, single point]

Question: Which Potency does the source give for `Cc1ccc(N=c2c([N+](=O)[O-])nn(-c3ccccc3)n2O)c(C)c1` here?
Answer: inconclusive [activator, partial curve]

Question: Which Potency does the source give for `Cc1ccc2oc(=O)c3cc(C(=O)NCCCN4C(C)CCCC4C)sc3c2c1` (stereo unspecified) here?
Answer: inactive

Question: With `Cc1ccc(OCC(=O)N2CCN(c3ccc([N+](=O)[O-])c(N4CCOCC4)c3)CC2)cc1` as the molecule, how does the Potency read?
Answer: inactive

Question: Which Potency does the source give for `CCc1ccc(/C=C2\Oc3ccc(C(=O)OC)cc3C2=O)cc1` here?
Answer: inconclusive [activator, single point]

Question: For `CC(=O)c1c(C)[nH]c(C(=O)OCc2nc3ccsc3c(=O)[nH]2)c1C`, which Potency is on record?
Answer: inactive

Question: With `Cc1ccc(C(=O)CSc2nnc(C3CC3)n2C2CC2)s1` as the molecule, how does the Potency read?
Answer: inconclusive [activator, partial curve]

Question: For `Clc1cccc2sc(N3CCCCC3)nc12`, which Potency is on record?
Answer: inconclusive [activator, single point]

Question: Which Potency does the source give for `COc1ccc(-c2csc(NC(=O)C3=COCCO3)n2)c(OC)c1` here?
Answer: inconclusive [activator, single point]

Question: For `COc1ccc(CC(=O)Oc2ccc(C(C)C)cc2)cc1S(=O)(=O)N1CCOCC1`, which Potency is on record?
Answer: inactive

Question: With `CCOc1ccc(NC(=O)c2ccccc2OCC(=O)c2ccccc2)cc1` as the molecule, how does the Potency read?
Answer: inconclusive [activator, single point]

Question: With `COCCNc1nnnc2c1sc1nc(N3CCOCC3)c3c(c12)CC(C)(C)OC3` as the molecule, how does the Potency read?
Answer: inactive

Question: Which Potency does the source give for `CCc1ccc(NC(=O)Nc2cnccn2)cc1` here?
Answer: active: 3.55 µM

Question: Which Potency does the source give for `COc1ccc(-n2nc3cc(N)c(Br)cc3n2)cc1` here?
Answer: inconclusive [activator, partial curve]

Question: With `O=C1NC(=S)S/C1=C\c1ccc2ccccc2c1` as the molecule, how does the Potency read?
Answer: inconclusive [activator, single point]

Question: With `COc1ccc(OCc2cc(C(=O)N3CCSCC3)no2)c(Cl)c1` as the molecule, how does the Potency read?
Answer: active: 2.82 µM

Question: Which Potency does the source give for `Cc1cc(/C=N/NC(=O)c2ccncc2)c(C)n1-c1ccccc1` here?
Answer: inconclusive [activator, single point]

Question: For `CN(CCN1CCc2ccccc2C1)Cc1nc(Cc2ccccc2F)no1`, which Potency is on record?
Answer: inactive

Question: Which Potency does the source give for `Fc1ccc(NC(=S)N2N=CCC2c2ccccc2)cc1` (stereo unspecified) here?
Answer: inactive

Question: Which Potency does the source give for `COC(=O)c1ccc2nc(NC(=O)C3CC3)sc2c1` here?
Answer: inconclusive [activator, partial curve]

Question: Which Potency does the source give for `COc1ccc2c(c1)sc(=NC(=O)CS(=O)(=O)c1ccc(F)cc1)n2C` here?
Answer: inactive

Question: Which Potency does the source give for `O=C(Cn1cc(SCc2ccccc2Cl)c2ccccc21)N1CCOCC1` here?
Answer: inconclusive [activator, single point]

Question: Which Potency does the source give for `COc1ccccc1NC(=O)/C=C/c1ccc2c(c1)OCO2` here?
Answer: inconclusive [activator, single point]

Question: With `O=C(N/N=C/c1ccc(-c2ccc(S(=O)(=O)Nc3ncccn3)cc2)o1)c1cc2ccccc2cc1O` as the molecule, how does the Potency read?
Answer: inactive

Question: For `O=C(Cc1ccc(Cl)c(Cl)c1)N/N=C/c1cccnc1`, which Potency is on record?
Answer: inactive
